# Test results from PubChem BioAssay AID686978 (National Center for Advancing Translational Sciences (NCATS), 2013).
# Hit rate of the full screen: of about 420,000 compounds, about 64,000 (15%) were called active. The inconclusive results got no clear call from the source; some entries with a clear call stand among them for comparison. Calls come from the whole dose curve; as a rule, active = well fitted inhibition curve with a large enough effect; inconclusive = small, poorly fitted or top-dose-only effect; inactive = flat fitted curve, though single readings scatter. Potencies of inconclusive entries are left out as doubtful fits.
# Assay: qHTS for Inhibitors of human tyrosyl-DNA phosphodiesterase 1 (TDP1): qHTS in cells in absence of CPT; note: nearly all actives have a fitted effect of over 55% in size
# Details: DT40 Tdp1-/- hTDP1 cells, no CPT, ATP luminescence, 48 h; activity change, negative = growth inhibition: at 46.2 µM (top of the series)
# Summary of the method: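 Readout: luminescence from CellTiter-Glo after 30 min in the dark at RT. Cells: DT40 Tdp1-/- with stable hTDP1, 400/well. Exposure: compounds alone, ≥48 hr, 37 °C.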
# % is set by controls: 0 for no effect and ±100 for the full control effect; potency is the fitted concentration of half-maximal effect; tags give direction and shape of the fitted curve.
Structure (SMILES),Potency,"activity change, negative = growth inhibition"
O=C(COc1ccccc1)N1CCN(c2nnc(-c3ccccc3)c3ccccc23)CC1,active: 16.4 µM,
Cc1cccc(OCc2nnc(SCC(=O)O)n2-c2ccccc2)c1,inactive,
CCN(CC(=O)Nc1ccc(OC)cc1)C(=O)c1ccc2ccccc2c1,"inconclusive [inhibitor, single point]",
Cc1cccc(CSC2=NCCN2C(=O)c2ccc(Br)o2)c1,inactive,
CCn1c(Cc2cccs2)nnc1SCC(=O)c1ccc(C)cc1,active: 14.1 µM,
Cc1ccc(-c2ccc(=O)n(CC(=O)Nc3ccc(C)cc3Cl)n2)cc1,inactive,
O=C(O)C1CC(=O)N(c2ccc(OCc3ccccc3)cc2)C1 (stereo not given),inactive,
COc1ccc(C(=O)NC(C(=O)NCCc2ccc3c(c2)OCCO3)C(C)C)cc1 (stereo not given),"inconclusive [inhibitor, single point]",
CCCCCCc1ccc(OCC(=O)O)cc1OCC(=O)O,inactive,
O=C(CCC(=O)N1CCOc2ccccc21)Nc1ccccc1Br,inactive,
CCC(C)Nc1nc(OC)nc(N(C)C#N)n1 (stereo not given),"inconclusive [inhibitor, partial curve]",
COc1ccc(C2/C(=C(/O)c3ccccc3)C(=O)C(=O)N2c2ncccn2)cc1OC (stereo not given),inactive,
Nc1nc(-c2ccccc2)[nH]c(=O)c1N=O,"inconclusive [inhibitor, single point]",
Cc1ccc(S(=O)(=O)N2CCN(C(=O)CN3C(=O)NC(C)(c4ccc5ccccc5c4)C3=O)CC2)cc1 (stereo not given),"inconclusive [inhibitor, single point]",
O=C(NCc1nc2ccccc2[nH]1)C1=C[C@H](c2ccccc2)C[C@H](OCc2ccc(CO)cc2)O1,"inconclusive [inhibitor, single point]",
OC(c1ccccc1)c1ncc(-c2cccc(C(F)(F)F)c2)[nH]1 (stereo not given),,inconclusive: -30.3% [inhibitor]
O=c1c(-c2nc3ccccc3s2)cccn1Cc1ccc(Cl)cc1,inactive,
COc1ccc(NC(=O)/C(N=Nc2cc(S(=O)(=O)Nc3ccc(OC)cc3)ccc2OC)=C(\C)O)cc1,inactive,
Cc1cc(NC(=O)CSc2nc(C3CC3)nc3sc(C)c(C)c23)no1,active: 8.2 µM,
Cc1cccc(Cn2c(C(=O)OC(C)C)cc3c2ccn3C)c1,"inconclusive [inhibitor, single point]",
NC(=O)CSc1nnc(NC(=O)c2ccc(Br)o2)s1,inactive,
O=C(CC(=O)NN=Cc1ccc2c(c1)CCC2)NN=Cc1ccc2c(c1)CCC2,"inconclusive [inhibitor, single point]",
O=C(CSc1nnc2c(n1)[nH]c1ccccc12)Nc1ccc2c(c1)OCO2,"inconclusive [inhibitor, single point]",
COc1ccc(-c2ccc3c(c2)S(=O)(=O)c2cccc(C(=O)N4CCN(c5ccc(Cl)cn5)CC4)c2C3=O)cc1OC,"inconclusive [inhibitor, single point]",

Structure (SMILES),Potency,"activity change, negative = growth inhibition"
O=C(N/N=C/c1ccco1)c1cccc(N2Cc3ccccc3C2)c1,inactive,
C=CCNC(=O)c1ccccc1NC(=O)C1CCN(S(=O)(=O)c2ccc(SC)cc2)CC1,"inconclusive [inhibitor, single point]",
COc1ccc(C2C=C(c3ccccc3)Nc3nc(NC(=O)c4cccc([N+](=O)[O-])c4)nn32)cc1 (stereo not given),"inconclusive [inhibitor, partial curve]",
Cc1ccc(C(=O)c2oc3ccccc3c2N)cc1,"inconclusive [inhibitor, partial curve]",
O=C(O)c1ccc(N/N=C/c2cc3cc4c(cc3nc2Cl)OCCO4)cc1,,inconclusive: -32% [inhibitor]
COc1cc(OC)cc(C(=O)NC(=S)NNC(=O)[C@H]2C[C@@H]2c2ccccc2)c1,active: 18.4 µM,
CC(=O)Oc1ccc(N(C(C)=O)S(=O)(=O)c2ccc(Cl)cc2)c2ccccc12,"inconclusive [inhibitor, single point]",
O=C(CSc1nnc(-c2cnccn2)n1Cc1ccco1)Nc1ccc(Br)cc1,"inconclusive [inhibitor, partial curve]",
Clc1cccc(N2CCN(c3nc4ccccc4n4nnnc34)CC2)c1,"inconclusive [inhibitor, partial curve]",
COc1ccc(-c2csc(NC(=O)c3cccc(N4C(=O)CCC4=O)c3)n2)cc1C,"inconclusive [inhibitor, single point]",
CC(C)(COP(=O)(O)OP(=O)(O)OC[C@H]1O[C@@H](n2cnc3c(N)ncnc32)[C@H](O)[C@@H]1OP(=O)(O)O)C(O)C(=O)NCCC(=O)NCCS (stereo not given in full),"inconclusive [inhibitor, single point]",
CCOC(=O)C1(C)/C(=N/Nc2cccc(Cl)c2)C(=O)C(=O)N1c1ccccc1 (stereo not given),inactive,
COc1ccc(C(=O)Nc2ccc3oc(-c4cccnc4)nc3c2)cc1,"inconclusive [inhibitor, partial curve, poor fit]",
Cc1ccc(OCC(=O)Nc2cccc(-c3nc4ccccc4s3)c2)cc1,"inconclusive [inhibitor, single point]",
C[C@H](CO)N1C[C@H](C)[C@@H](CN(C)S(=O)(=O)c2ccc(F)cc2)Oc2ccc(NC(=O)C3CC3)cc2C1=O,inactive,
Cc1ccc(C)c(S(=O)(=O)N2CCCCC2CCNC(=O)C(=O)NC2CC2)c1 (stereo not given),"inconclusive [inhibitor, partial curve]",
O=C(Nc1cccc(S(=O)(=O)N2CCCCC2)c1)c1ccccc1NS(=O)(=O)c1ccc(F)cc1,active: 20.6 µM,
O=C(NCCN1CCN(Cc2ccccc2)CC1)c1ccc(CS(=O)(=O)c2ccc(Br)cc2)o1,,inconclusive: -34.8% [inhibitor]
CCCC1NC(=O)c2cc3ccccc3cc2-n2c1nc1ccc(C)cc1c2=O (stereo not given),active: 18.4 µM,
COc1cc(/C=N/NC(=O)C(C)Nc2n[nH]c(=O)[nH]c2=O)cc(OC)c1O (stereo not given),inactive,
COc1cccc(CNC(=O)C2CCN(S(=O)(=O)c3ccc4c(c3)CC(C)N4C(=O)C3CC3)CC2)c1 (stereo not given),"inconclusive [inhibitor, single point]",
Cc1ccc(S(=O)(=O)N2CCC(C(=O)OCC(=O)N3CCCCC3C)CC2)cc1C (stereo not given),inactive,
Cc1ccc(C(=O)c2coc3ccc(O)c(CN4CCN(C)CC4)c23)cc1,active: 18.4 µM,
COc1cccc(CNC(=O)c2sc3nc(C)cc(C)c3c2-n2cccc2)c1OC,"inconclusive [inhibitor, single point]",

Structure (SMILES),Potency,"activity change, negative = growth inhibition"
Cc1ccc(C)c(N2CCN(C(=O)c3cc4ccccn4n3)CC2)c1,active: 23.1 µM,
CC1C(=O)C(C)C(c2cccc(Br)c2)NC1c1cccc(Br)c1 (stereo not given),inactive,
CCOC(=O)c1ccc(NC(=O)C2CCCN(c3ncnc4onc(-c5ccc(F)cc5)c34)C2)cc1 (stereo not given),active: 14.6 µM,
CCOC(=O)C1(N(CC)CC)Sc2cc(C)ccc2NC1=O (stereo not given),active: 18.4 µM,
COc1ccc(NC(=O)C2CC2(Cl)Cl)cc1S(=O)(=O)N1CCCCC1 (stereo not given),"inconclusive [inhibitor, single point]",
NC(=O)COC(=O)c1cccc(S(=O)(=O)N2CCN(c3ccccc3)CC2)c1,,inconclusive: -22.4% [inhibitor]
Cc1ccc(-c2c3c(nc4sc(C(N)=O)c(N)c24)CCC3)cc1,"inconclusive [inhibitor, single point]",
Cc1c(C(=O)NCc2ccccc2)sc2nc3n(c(=O)c12)CCCCC3,"inconclusive [inhibitor, single point]",
CC(=O)Nc1ccc(Cl)cc1C(=O)c1ccc[nH]1,inactive,
COCCNc1oc(/C=C/c2ccccc2OC)nc1S(=O)(=O)c1ccccc1,"inconclusive [inhibitor, partial curve]",
CC1CN(CCCCOc2ccc3ccccc3c2)CC(C)O1 (stereo not given),"inconclusive [inhibitor, single point]",
O=C(CNC(=O)N1CC(=O)Nc2ccccc21)NCCc1c[nH]c2ccccc12,inactive,
COC(=O)C(Cc1c[nH]c2ccccc12)NC(=O)COc1cccc(C)c1 (stereo not given),"inconclusive [inhibitor, single point]",
COC(=O)c1sccc1S(=O)(=O)N1CCN(c2cc(Cl)ccc2C)CC1,"inconclusive [inhibitor, single point]",
O=C(CNS(=O)(=O)c1ccc(Cl)cc1)N/N=C/c1ccco1,"inconclusive [inhibitor, single point]",
Cc1cc(C(=O)CSc2nnc(N)s2)c(C)n1Cc1cccs1,"inconclusive [inhibitor, partial curve]",
Cc1ccc(C)c(C(C)NC(=O)c2ccncc2)c1 (stereo not given),"inconclusive [inhibitor, partial curve]",
CCN(c1cccc(C)c1)S(=O)(=O)c1ccc2c(c1)CCN2C(C)=O,active: 16.4 µM,
O=[N+]([O-])c1ccc(NN=Cc2cccc(O)c2)nc1,"inconclusive [inhibitor, single point]",
CCOC(=O)COc1ccc(CC)cc1C(=O)c1ccn2nc(-c3ccccc3)cc2n1,active: 23.1 µM,
COc1ccccc1C1CCN(Cc2ccc(Cl)c(Cl)c2)CC1,"inconclusive [inhibitor, single point]",
COCCN(CC(=O)Nc1ccccc1C(F)(F)F)C(=O)c1ccc(-n2cccn2)cc1,inactive,
